Results as given in PubChem BioAssay AID2101 (National Center for Advancing Translational Sciences (NCATS), 2009).
The whole screen tested about 330,000 compounds, of which about 300 (0.091%) were called active. The shares of active, inactive and inconclusive entries below differ from those in the screen. The call rests on the fitted dose curve; in most records, active means well fitted inhibition curve with a large enough effect; inconclusive means small, poorly fitted or top-dose-only effect, or effect the other way, or another doubt; inactive means no such curve, though single readings can be large or run the other way. Potencies of inconclusive entries are left out as doubtful fits.

Target: Lysosomal acid glucosylceramidase (Homo sapiens) (UniProt P04062)
Assay: qHTS Assay for Inhibitors and Activators of N370S glucocerebrosidase as a Potential Chaperone Treatment of Gaucher Disease;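 on activity change, negative = inhibition: 0% = full enzyme activity and -100% = no enzyme basal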
Settings: N370S GC spleen homogenate, 4MU-glucoside fluorescence; activity change, negative = inhibition: at 59.4 µM (top of the series) unless noted
Potency means the concentration at half of the fitted maximal effect.

SMILES	Potency	activity change, negative = inhibition
CN1CCN(CCCNC(=O)c2ccc3c(c2)N(Cc2ccc(F)cc2)CCS3)CC1	inconclusive [activator, partial curve]	–
CCOc1ccc(-c2csc(Cn3c(CN4CCN(C)CC4)nc4ccccc4c3=O)n2)cc1	inconclusive [inhibitor, partial curve]	–
COc1ccc(/C=C/CN2CCCC(CO)(Cc3cccc(Cl)c3)C2)cc1 (centres undefined)	–	inconclusive: 29.8% [activator]
Cc1cccnc1NC(=O)Nc1cccs1	inconclusive [activator, partial curve]	–
Cc1nc(NS(=O)(=O)c2ccccc2)sc1NC(=O)OCCN(C)C	inactive	–
Cc1ccccc1-c1cc(=O)c2c(O)cccc2o1	inconclusive [activator, partial curve, poor fit]	–
CCCn1c(=NC(C)=O)c(C(=O)OCC)cc2c(=O)n3ccccc3nc21	inconclusive [activator, partial curve]	–
Cc1nc2c(o1)CCc1ccccc1C2O (centres undefined)	inconclusive [inhibitor, partial curve]	–
CC1CCc2c(C(=O)Nc3nccs3)csc2C1 (centres undefined)	inactive	–
Cc1c(CC(=O)N[C@H](C(=O)O)C(C)C)c(=O)oc2cc3c(cc12)CCC(C)(C)O3	inconclusive [activator, single point]	–
Cc1cc2n(n1)C(c1cn(-c3ccccc3)nc1C)Nc1ccccc1-2 (centres undefined)	inactive	–
COc1ccc(-c2nc(CS(=O)CC(=O)NCCc3ccc(OC)c(OC)c3)c(C)o2)cc1 (centres undefined)	inconclusive [inhibitor, single point]	–
O=C(NCCc1ccc(Cl)cc1)c1ccc2[nH]c(=O)c(=O)[nH]c2c1	inconclusive [inhibitor, partial curve]	–
CCOC(=O)c1cc2c(=O)n3cccc(C)c3nc2n(C)c1=N	inconclusive [activator, partial curve, poor fit]	–
C(=N\Nc1nc2ccccc2[nH]1)/c1cccs1	inactive	–
Cc1ccc2[nH]c(=O)c(CN(Cc3ccco3)S(=O)(=O)c3c(C)ccc4nsnc34)cc2c1	inconclusive [activator, partial curve]	–
O=C(N/N=C/c1cccc(F)c1)c1csc2c1CCCC2	inconclusive [activator, partial curve]	–
CC(=NC1CCCCC1)C1=C(O)c2ccccc2C1=O	inconclusive [activator, partial curve]	–
C=CCn1c(SCC(=O)Nc2ccc(N3CCOCC3)cc2)nnc1-c1ccco1	inactive	–
Cc1ccc(SCCNC(=S)Nc2ccc(C)c(C)c2)cc1	inconclusive [activator, partial curve, poor fit]	–
CCOc1ccccc1NC(=O)Cc1coc2cc(C)ccc12	inconclusive [activator, partial curve]	–
CN(C)c1ccnc(Oc2ccc(C(C)(C)C)cc2)c1C#N	inconclusive [activator, partial curve]	–

SMILES	Potency	activity change, negative = inhibition
Cc1ccc(S(=O)(=O)Nc2cc3c(cc2N2CCOCC2)n(C)c(=O)c(=O)n3C)cc1	inactive	–
Nc1nccnc1C(=O)OCC(=O)NCCc1ccc(S(N)(=O)=O)cc1	inconclusive [activator, single point]	–
CCN1C(=O)[C@H]2[C@@H](c3ccc(C)cc3)N3C(=O)N(c4ccc(C(F)(F)F)cc4)C(=O)[C@@]3(CC(C)C)[C@H]2C1=O	inconclusive [inhibitor, partial curve]	–
COc1ccc(NS(=O)(=O)c2cc(NC(=O)C3CC3)ccc2N2CCCCC2)cc1	inconclusive [activator, partial curve]	–
NC(N)=N/N=C/c1cccc([N+](=O)[O-])c1O	–	inconclusive: 35.9% [activator]
Cc1ccc(Nc2cnn(C34CC5CC(CC(CC(=O)O)(C5)C3)C4)c(=O)c2Cl)c(Cl)c1	inconclusive [activator, partial curve]	–
CC(=O)c1c(C)[nH]c(C(=O)CN2C(=O)NC(C)(CCC(C)C)C2=O)c1C (centres undefined)	inconclusive [inhibitor, single point]	–
CCOC(=O)c1nnn(-c2nc(OC)nc(N3CCCCC3)n2)c1-c1ccccc1	inconclusive [activator, partial curve]	–
CCCOc1ccc(S(=O)(=O)NCCCN2CCOCC2)c2ccccc12	inconclusive [inhibitor, partial curve]	–
COc1cc(C2c3c(n[nH]c3C)C(=O)N2c2ccc(Br)cc2)ccc1O (centres undefined)	inactive	–
FC(F)(F)c1ccccc1-c1nccc(NCc2ccccc2)n1	active: 11.2 µM	–
O=C(NCCCN1CCOCC1)c1ccc2c(c1)N(Cc1cccc(F)c1)C(=O)c1ccccc1S2	inconclusive [inhibitor, partial curve]	–
c1ccc(-c2ccc(OCCN3CCCC3)cc2)cc1	inactive	–
Fc1cccc2sc(N3CCOCC3)nc12	inactive	–
CCOc1cc(CNc2ccc(O)cc2)cc(Br)c1OCc1ccccc1F	inconclusive [inhibitor, partial curve]	–
CCOC(=O)C1=C(C)OC(N)=C(C#N)C1c1ccoc1 (centres undefined)	inactive	–
C/C(=N\Nc1ccc([N+](=O)[O-])cc1[N+](=O)[O-])C(C)(C)C(C(=O)O)C(=O)O	inconclusive [inhibitor, single point]	–
CC(C)(C)c1nnc(NC(=O)COc2ccc3c(c2)OCO3)s1	inactive	–
Cc1ccc(NC(=O)Nc2sc(=S)n(C)c2C)cc1	inactive	–
O=c1cc(-c2ccc(O)c(O)c2)oc2c(C3O[C@H](CO)[C@@H](O)[C@H](O)[C@H]3O)c(O)cc(O)c12 (some centres undefined)	inactive	–
CN(C)c1ccc(C(=O)NC2CCCc3ccccc32)cc1 (centres undefined)	inconclusive [activator, partial curve]	–
O=C(Nc1cccc(C(F)(F)F)c1)c1cncs1	inconclusive [inhibitor, partial curve]	–
